Measured values: PubChem BioAssay AID463173 (ICCB-Longwood Screening Facility, Harvard Medical School, 2010)
About 4,300 (8.3%) of roughly 52,000 compounds were called active. Rule as the data show it: active = survival mostly below about 52% (no sharp cut-off); inactive = mostly above about 56%. This is one part of the list.

The compounds below were run on DeltatarO mutant (assay: S. aureus survival, RN4220 and DeltatarO strains – OD600, teichoic acid synthesis inhibitors, primary screen (AID 463173)). Conditions: S. aureus RN4220 wild type/DeltatarO growth, OD600, 18 h, active compounds read low, screened at 18.75 µg/mL (by protocol).

SMILES	survival
Cc1ccccc1Cn1cnc2nc3c(cc2c1=O)CC(C)CC3 (stereo not drawn)	active: 8%
O=C1OCC2=C1C(c1ccc3c(c1)OCO3)Sc1ccccc1N2 (stereo not drawn)	inactive: 96%
Cc1cc(N2CCCCC2)nc2ccc(NC(=O)/C=C/c3ccc(OCCC(C)C)cc3)cc12	inactive: 56%
CCc1cccc(C)c1NC(=O)CCCn1nc(C)c2sc3ccccc3c2c1=O	inactive: 86%
O=C(CSc1nc2ccsc2c(=O)n1-c1ccc(Br)cc1)NCc1ccccc1	inactive: 73%
O=C(C1CCN(S(=O)(=O)Cc2ccccc2)CC1)N1CCCc2ccccc21	inactive: 88%
Cc1ccccc1C(=O)N1CCC(N2CCN(Cc3ccc(F)cc3)C(=O)C2=O)CC1	inactive: 112%
O=C(Nc1cccc(C(F)(F)F)c1)Nc1cccs1	active: -3%
O=C(CSc1nnc2scc(-c3ccccc3)n12)Nc1ccc(Cl)cc1	inactive: 56%
CCOC(=O)c1ccc(NC(=O)c2ccc(CN3C(=O)CCn4nc(C)cc43)cc2)cc1	inactive: 113%
CCCCN(CC)C(=O)C1CCCN(c2ncnc3c2nc2n3CCCCC2)C1 (stereo not drawn)	inactive: 77%
CCOc1ccc(CNC(=O)CCn2c(=O)c3cccn3c3ccc(F)cc32)cc1	active: 45%
O=C(CSCc1cnn(-c2ccccc2)c1-n1cccc1)NCc1ccc(F)cc1	inactive: 58%
CCc1ccc(NC(=O)CSc2ccc(-c3cccs3)nn2)cc1	inactive: 72%
Oc1c(C(c2ccccc2Cl)N2CCN(Cc3ccccc3)CC2)sc2nc(-c3ccco3)nn12 (stereo not drawn)	inactive: 78%
Cc1noc(Cn2c(=O)c3cc4c(cc3n(CC(=O)Nc3ccccc3F)c2=O)OCO4)n1	inactive: 77%
CCOc1ccc2nc(N3CCC(C(=O)Nc4cc(C)ccc4C)CC3)sc2c1	inactive: 73%
Cc1ccc(Cl)cc1NC(=O)CCn1c(=O)c2cccn2c2cccnc21	inactive: 78%
COc1ccc(NC(=O)CSc2nc(-c3cccs3)cc(C(F)(F)F)n2)c(OC)c1	inactive: 57%
O=C(NC1CCCCC1)c1ccc(CSc2nc3ccncc3n2Cc2ccccc2F)cc1	inactive: 65%
Cc1ccc(NC(=O)Cn2cc3c(n2)CCCC3)c(C)c1	inactive: 101%
S=C(Nc1ccccc1)Nn1cnnc1	inactive: 71%
COCCCNC(=O)c1ccc2c(c1)nc1n2CCCCC1	inactive: 89%
Cc1ccccc1C(=O)Nc1nc(-c2ccc(Br)cc2)ns1	inactive: 49%

SMILES	survival
Cc1ccc(NC(=O)CNCc2ccco2)cc1Cl	inactive: 99%
CC(C)NC(=O)C1CCC(Cn2c(=O)c3sccc3n(CC(=O)Nc3ccccc3)c2=O)CC1 (stereo not drawn)	inactive: 74%
CC(=O)c1cc(-c2ccccc2)n(CC(=O)NCCc2ccc(C)cc2)c1C	inactive: 78%
CC(C)Oc1ccc(CNC(=O)C2CCN(C(=O)N3CC(C)Oc4ccccc43)CC2)cc1 (stereo not drawn)	inactive: 73%
CCOC(=O)c1ccc(CN(Cc2ccccc2)S(=O)(=O)c2ccc(Cl)cc2)cc1	active: 32%
FC(F)(F)c1cc(-c2cccc(Br)c2)nc2ncnn12	inactive: 120%
CCOC(=O)C1CCC(CN(Cc2ccc(OC)cc2)S(=O)(=O)c2ccc(F)c(C(=O)Nc3cc(C)ccc3C)c2)CC1 (stereo not drawn)	inactive: 75%
CCOC(=O)c1cnc2ccc(OCC)cc2c1N1CCN(c2ccccc2F)CC1	active: 0%
CCOc1ccc(NC(=O)c2ccc3snnc3c2)cc1	inactive: 111%
Cc1nc(N2CCCC2)c2c(C(=O)Nc3ccc(Br)cc3F)c(C)oc2n1	active: 25%
CCOC(=O)c1c(NC(=O)COc2cc(C)ccc2C(C)C)sc2c1CCCC2	inactive: 50%
Cc1c(C=Nc2ccc(SC#N)c(Cl)c2)c(O)[nH]c(=O)c1C#N	inactive: 68%
Cc1cccc(NC(=O)c2c(NC(=O)c3cccs3)sc3c2CCC(C)C3)c1 (stereo not drawn)	inactive: 60%
COc1cccc(CN2CCc3nc(Nc4ccc5c(c4)OCCO5)ncc3C2)c1OC	inactive: 75%
COc1ccccc1N1CCN(C(CNC(=O)C(=O)NCCN(C)C)c2cccnc2)CC1 (stereo not drawn)	inactive: 69%
S=C(NCc1ccco1)Nc1ccccc1	inactive: 108%
COc1ccc(OCCn2cnc3ccccc32)cc1	inactive: 85%
CCCOc1ccc(C2C(=O)N(C3CCCCC3)CC(=O)N2CCc2ccccc2)cc1OC (stereo not drawn)	inactive: 86%
Clc1cccc(-n2ncc3c(NCCc4ccccc4)ncnc32)c1	inactive: 94%
CCOC(=O)c1cccc(NS(=O)(=O)c2cc(-c3cnc(C)o3)ccc2OC)c1	inactive: 94%
CN(C)C(=O)c1ccc(NC(=O)Cn2nc(-c3ccccc3)c3ccccc3c2=O)cc1	active: 39%
CCc1ccc(C2=C(C)C(N3CCC(C(=O)Nc4cccc(OC)c4)CC3)=NS2(=O)=O)cc1	inactive: 115%
CCOc1ccc(NC(=O)CSc2nc(-c3cccs3)cc(C(F)(F)F)c2C#N)cc1	inactive: 78%
Oc1ccc(/C=C/c2nc(-c3ccccc3O)n(-c3ccccc3)n2)c(O)c1	active: -3%

SMILES	survival
Cc1cccc(NC(=O)CSc2nc(=O)n(Cc3ccncc3)c3c2CCC3)c1C	inactive: 85%
N#CCCn1c(=O)n(CCC#N)c(=O)n(CCC#N)c1=O	inactive: 79%
N#CCN(CC#N)C(=O)Cc1cccs1	inactive: 102%
O=C(NCc1ccccc1Cl)c1ccc2c(c1)nnn2C1CCCC1	inactive: 77%
CCOc1ccc(NC(=O)CN2CCN(CC(=O)Nc3ccc(N(CC)CC)cc3)CC2)cc1	inactive: 85%
COc1cc(NS(=O)(=O)c2ccc3[nH]c(=O)[nH]c3c2)cc(OC)c1	inactive: 79%
COc1cccc2c1Oc1ncccc1N(c1ccc(C(=O)NCc3ccccc3C)s1)C2	inactive: 84%
NC(=S)/N=C1/CCN(c2ccccc2)N1	inactive: 89%
COc1ccc(CCNC(=O)c2ccc3c(c2)sc2nc(-c4ccc(C)cc4)cn23)cc1OC	inactive: 81%
COc1ccccc1NC(=O)CSC1=Nc2ccccc2C2=NC(CC(=O)NCCc3ccccc3)C(=O)N12 (stereo not drawn)	inactive: 85%
COc1ccc(-c2noc(=O)n2CCCC#N)cc1OC	inactive: 105%
CCc1ccccc1NC(=O)Cn1nnc(-c2nc(-c3ccncc3)no2)c1N	inactive: 86%
CCn1c(SCc2cccc(C(=O)O)c2)nnc1-c1ccco1	inactive: 93%
Cc1ccc(NC(=O)C2CCN(S(=O)(=O)c3ccc4c(c3)CCCC(=O)N4)CC2)c(Cl)c1	inactive: 83%
CC1=Nc2cc(C(=O)NC3CCCCC3)ccc2Sc2ccc(Cl)cc21	inactive: 85%
COc1ccc(NC(=O)c2coc(=O)c3ccccc23)cc1OC	inactive: 125%
OCCNCC(O)Cn1ccc2ccccc21 (stereo not drawn)	inactive: 73%
O=C(CCCc1ccccc1)NC1CC(=O)N(c2ccc(Cl)cc2)C1 (stereo not drawn)	inactive: 71%
CC1=C(c2ccc(C(C)C)cc2)S(=O)(=O)N=C1N1CCN(c2ccc(F)cc2)CC1	inactive: 74%
Cc1ccc(OCC(=O)Nc2nnc(SCc3cc(=O)c4ccccc4[nH]3)s2)cc1C	inactive: 94%
COc1ccc(CNC(=O)C2CCCN2C(=O)NCc2ccccc2)cc1 (stereo not drawn)	inactive: 88%
COCCn1c(C)cc(O)c(C(c2ccccc2)N2CCN(CCO)CC2)c1=O (stereo not drawn)	active: 32%
COc1cc2c(cc1OC)C(COc1ccc3c(C)cc(=O)oc3c1)N(C(=O)c1cccc(OC)c1OC)CC2 (stereo not drawn)	inactive: 68%
CC(=O)N1c2ccc(S(=O)(=O)N3CCCCCC3)cc2CC1C(=O)NCc1ccccc1 (stereo not drawn)	inactive: 88%

SMILES	survival
COc1ccc(C2C3C(=O)N(c4ccccc4)C(=O)C3ON2c2ccccc2)cc1 (stereo not drawn)	inactive: 106%
O=C(Nc1ccc2oc(-c3ccccc3)nc2c1)c1ccc2ccccc2c1	inactive: 74%
COc1ccc(-c2nc3scc(CCNS(=O)(=O)c4cc(F)ccc4OC)n3n2)cc1OC	inactive: 66%
NS(=O)(=O)c1cccc(C(=O)O)c1	inactive: 82%
CN(C(=O)CSc1nnc(-c2ccc([N+](=O)[O-])cc2)o1)C1CCCCC1	inactive: 83%
Cc1ccc(CN2CCSc3ccc(C(=O)Nc4cc(C)cc(C)c4)cc32)cc1	inactive: 87%
CC(=O)N1CCc2c(sc3nc(SCC(N)=O)n(-c4ccc(F)c(Cl)c4)c(=O)c23)C1	inactive: 75%
COc1ccc2c(c1)c1c(c(=O)n(Cc3ccccc3)c(=O)n1CC(=O)Nc1cc(C)cc(C)c1)n2C	inactive: 72%
CCOc1ccc(NC(=O)N2CCC(CN3CCCCCC3)CC2)cc1	inactive: 115%
Cc1cccc(N2CCN(C(=O)c3ccc4c(c3)c(C)c(C)n4C)CC2)c1C	inactive: 80%
Cc1cc(C)cc(NC(=O)CSc2oc(-c3ccco3)nc2S(=O)(=O)c2ccccc2)c1	inactive: 65%
O=C(Nc1ccccc1OCc1cc(=O)n2ccccc2n1)c1cccc(Br)c1	inactive: 74%
Cc1ccc2c(n1)sc1c(=O)n(-c3cccc(C(F)(F)F)c3)nnc12	inactive: 102%
Clc1ccc(OCc2nc(-c3ccc(-n4cccc4)cc3)no2)cc1	inactive: 163%
CCOC(=O)c1sc2nc(C)n(CC(=O)Nc3cccc(Cl)c3)c(=O)c2c1C	inactive: 71%
Cc1ccc(C)c(CSC2=NC(C)(C)Nc3ccccc32)c1	inactive: 80%
COc1ccc(CN(C)S(=O)(=O)c2nnc(NC(=O)C(C)C)s2)cc1OC	inactive: 55%
CC(=O)c1cccc(NC(=O)CSc2nnc3ccc(-c4ccc(Cl)cc4)nn23)c1	inactive: 113%
COc1cc(-c2nc3ccccn3c2NC2CCCC2)ccc1O	inactive: 110%
CC(C)(C)c1cc(CN2CCOCC2)c(C(=O)O)o1	inactive: 92%
COc1ccccc1NC(=O)C1=C(C)Nc2nc(SCc3ccccc3F)nn2C1c1cccnc1 (stereo not drawn)	inactive: 67%
